Reference: PubChem BioAssay AID759 (NMMLSC, 2007)
The campaign covered roughly 190,000 compounds. About 270 (0.14%) were called active. This list was built around the results that the source calls inconclusive (neither active nor inactive); the mix of calls is not that of the screen.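 The calls were made as follows: active = GTP binding activity at least 20% away from the 100% baseline, either lowered as inhibitor or raised as activator; inconclusive = flagged as likely green fluorescent, judged across all proteins in the well; inactive = the rest.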

These molecules were tested against GTPase HRas (Homo sapiens) (UniProt P01112) (assay: HRas wt fluorescent GTP binding changes, either direction – biochemical, wildtype, bead-based flow cytometry, multiplex, primary screen (AID 759;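 also: 0% = unlabeled GTP competition control and 100% = no-compound control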)). Conditions: GST-Ras wt beads, Bodipy-FL-GTP binding, at 10 µM, actives lie on both sides.
Sequence of UniProt P01112 (P01112 whole entry, looked up): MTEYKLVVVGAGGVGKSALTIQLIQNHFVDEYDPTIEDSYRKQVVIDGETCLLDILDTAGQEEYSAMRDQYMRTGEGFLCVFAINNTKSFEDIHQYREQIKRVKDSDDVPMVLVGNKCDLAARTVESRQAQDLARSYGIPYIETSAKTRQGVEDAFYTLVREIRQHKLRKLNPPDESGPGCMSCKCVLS
With `N/C(=N\OC(=O)c1cccc(Br)c1)c1ccccc1` the GTP binding activity was inactive: 93%.
With `O=c1oc2c3c4c(cc2c2c1CCC2)OCCN4CCC3` the GTP binding activity was inconclusive: 93%.
In the case of `CCOC(=O)c1cc(-c2ccc(Cl)cc2)nc2c1c(=O)[nH]c(=O)n2CCOC`, the GTP binding activity is reported as inactive: 95%.
`O=C(/C=C/c1ccccc1)NC(=S)Nc1ccc(CN2CCOCC2)cc1` was tested, and the GTP binding activity was inconclusive: 102%.
`C/C(CC(=O)Nc1cccc(C(F)(F)F)c1)=N\NC(=O)C1CCCCC1` was tested, and the GTP binding activity was inconclusive: 93%.
In the case of `Cc1ccc(C)c(CSc2ncccc2C(=O)O)c1`, the GTP binding activity is reported as inactive: 113%.
With `CC(=O)c1c(C)[nH]c(C(=O)Nc2cccnc2)c1C` the GTP binding activity was inconclusive: 96%.
`O=C(NCCCn1ccnc1)C(Cc1ccccc1)N1C(=O)c2ccccc2C1=O` (stereo not drawn) was tested, and the GTP binding activity was inconclusive: 90%.
With `Cc1nn(-c2ccc(F)cc2)c(C)c1/C=C/C(=O)N1CCNC(=O)C1` the GTP binding activity was inactive: 96%.
For `Cc1nc2nc(C)c(CCC(=O)NC(C)c3ccc4c(c3)OCCO4)c(C)n2n1` (stereo not drawn), the GTP binding activity was inconclusive: 104%.
In the case of `Cc1ccc2c(c1)c(N=NC(N)=O)c(O)n2C`, the GTP binding activity is reported as inconclusive: 86%.
With `COc1ccc(C(NC(=O)C2CCCCC2)c2c(O)ccc3ccccc23)cc1` (stereo not drawn) the GTP binding activity was inactive: 98%.
`CC/C(O)=C(/C#N)c1nnc2n1CCCCC2` was tested, and the GTP binding activity was inactive: 101%.
In the case of `CC1CN(CC(=O)NN=C(c2ccccc2)c2ccccc2)CC(C)O1` (stereo not drawn), the GTP binding activity is reported as inactive: 97%.
In the case of `O=C(CN1C(=O)S/C(=C/c2cccnc2)C1=O)N1CCOCC1`, the GTP binding activity is reported as active: 78%.
`COc1cc(C(=O)NCCOc2ccc(F)cc2)c(Br)c(OC)c1OC` was tested, and the GTP binding activity was inactive: 98%.
For `CN1CCCC1=Nc1c2c(nc3ccccc13)N(C)CC2`, the GTP binding activity was inconclusive: 105%.
`CCCNC(=O)C(=O)NCc1ccccn1` was tested, and the GTP binding activity was inconclusive: 69%.
For `O=C(Nc1ccc(-c2nc3ccc(NC(=O)c4cccs4)cc3[nH]2)cc1)c1cccs1`, the GTP binding activity was inconclusive: 80%.
In the case of `Cc1ccc2c(c1)-c1c(cnn1CC(=O)Nc1ccccc1N1CCN(C)CC1)CO2`, the GTP binding activity is reported as inconclusive: 104%.
With `Brc1ccc(CSc2ccc3nnc(-c4ccccn4)n3n2)cc1` the GTP binding activity was inconclusive: 92%.
With `CS(=O)(=O)N1N=C(c2ccccc2)CC1c1ccc2c(c1)OCO2` (stereo not drawn) the GTP binding activity was inconclusive: 137%.
For `CC(C)CNC(=S)N1CCC(NC(=O)C23CC4CC(CC(C4)C2)C3)CC1`, the GTP binding activity was inconclusive: 103%.
With `COc1cc(-c2nc3ccccn3c2/N=C/c2cc(OC)c(O)cc2Cl)ccc1O` the GTP binding activity was inactive: 90%.
`CC(C)N1CSC(=S)N(Cc2ccccc2)C1` was tested, and the GTP binding activity was inactive: 98%.
In the case of `COC(=O)c1ccc(COc2ccccc2/C=N/Nc2cccc(C(=O)O)c2)cc1`, the GTP binding activity is reported as active: 121% [activator].
For `Cc1ccc(NC(=O)COC(=O)c2cccc3c2C(=O)c2ccccc2C3=O)c(C)c1`, the GTP binding activity was inconclusive: 95%.
With `CCOC(=O)c1c(C)[nH]c(=S)c(C#N)c1-c1ccc(Cl)cc1` the GTP binding activity was inconclusive: 92%.
For `Cc1ccc(Cc2ccc(C(=O)NNC(N)=S)o2)cc1`, the GTP binding activity was inactive: 109%.
In the case of `Cc1ccc(C2CC(c3ccco3)=NN2S(C)(=O)=O)cc1` (stereo not drawn), the GTP binding activity is reported as inconclusive: 103%.
With `Cn1nc(-c2ccccc2)c(-c2nc(-c3cccc(C(F)(F)F)c3)no2)c1Cl` the GTP binding activity was inconclusive: 97%.
`O=C(O)CC/C(=C\c1ccccc1[N+](=O)[O-])c1nc2ccccc2s1` was tested, and the GTP binding activity was inactive: 80%.
In the case of `NNC(=O)CN1C(c2ccc(Cl)cc2)=Nc2ccc(Br)cc2C1c1ccccc1` (stereo not drawn), the GTP binding activity is reported as inconclusive: 96%.
In the case of `COC(=O)c1ccc(NC(=O)c2cc(Cl)ccc2OC)cc1`, the GTP binding activity is reported as inactive: 96%.
`COc1ccc(Cc2nnc(N/N=C/c3ccc(C)o3)[nH]c2=O)cc1` was tested, and the GTP binding activity was inconclusive: 95%.
`COc1cccc2cc(C(C)=O)c(=O)oc12` was tested, and the GTP binding activity was inconclusive: 110%.
With `Cc1ccc(-c2cc(-c3nnc(SCC(=O)NC(C)C(C)C)n3N)c3ccccc3n2)cc1` (stereo not drawn) the GTP binding activity was inactive: 102%.
With `CN1CCN(c2ccc(C(=O)c3ccc(Br)cc3)cc2[N+](=O)[O-])CC1` the GTP binding activity was inactive: 97%.
For `O=C(Nc1cccc2ccccc12)c1cnccn1`, the GTP binding activity was active: 71%.
In the case of `COC(=O)CCCCC1SCC(NC(=O)OC)C1NC(=O)OC` (stereo not drawn), the GTP binding activity is reported as inconclusive: 105%.
For `Nc1nnn(Cc2ccccc2)n1`, the GTP binding activity was inconclusive: 103%.
With `O=[N+]([O-])c1ccc(NCCCNS(=O)(=O)c2ccccc2)cc1` the GTP binding activity was inactive: 97%.
For `FC(F)Sc1ccc(NC(=S)NC(c2ccccc2)c2ccccc2)cc1`, the GTP binding activity was inconclusive: 93%.
In the case of `CCCC(=O)NCc1nc2ccccc2n1C`, the GTP binding activity is reported as inconclusive: 94%.
`COc1ccccc1C(=O)Nc1ccc(OCc2nnc3c4ccccc4c(C)nn23)cc1` was tested, and the GTP binding activity was inconclusive: 92%.
With `Cc1ncn(-c2ccc(C(=O)Oc3ccccc3)cn2)n1` the GTP binding activity was inactive: 97%.
For `O=C(CCCN1C(=O)/C(=C/c2ccccc2)SC1=S)Nc1ccccc1O`, the GTP binding activity was inconclusive: 90%.
`C/C=C/c1ccccc1OCc1ccc(C(=O)O)o1` was tested, and the GTP binding activity was active: 145% [activator].
In the case of `CSc1ccccc1NC(=O)CN(C)CC(=O)Nc1ccccc1C(F)(F)F`, the GTP binding activity is reported as inactive: 95%.
For `CCOC(=O)C1=C(C)NC(C)=C(C(=O)OCC)C1c1cn(-c2ccccc2)nc1-c1ccco1`, the GTP binding activity was inconclusive: 103%.
`COc1ccccc1NC(=O)CN(Cc1ccco1)C(=O)c1cc2ccccc2o1` was tested, and the GTP binding activity was inactive: 96%.
With `CN(c1ccccc1)S(=O)(=O)c1cccc(NC(=O)CSc2ncc(C(F)(F)F)cc2Cl)c1` the GTP binding activity was inconclusive: 96%.
For `CC(NC1CCCCC1)C(=O)NN=C(c1ccccc1)c1ccccc1` (stereo not drawn), the GTP binding activity was inactive: 98%.
For `Cc1ccc(-n2[nH]c(C)c(/C=N/NC(=O)c3ccc([N+](=O)[O-])cc3)c2=O)c(C)c1`, the GTP binding activity was inconclusive: 90%.
In the case of `CC1(CC(=O)N/N=C/c2cc3c(cc2Br)OCO3)OCCO1`, the GTP binding activity is reported as inactive: 98%.
For `CCN1/C(=C/C=C/c2oc3ccc4ccccc4c3[n+]2CC)Oc2ccc3ccccc3c21`, the GTP binding activity was inconclusive: 239%.
With `CC(=O)c1cccc(NC(=O)CN(c2ccccc2F)S(C)(=O)=O)c1` the GTP binding activity was inconclusive: 106%.
In the case of `O=C(Nc1nc(-c2ccc(S(=O)(=O)N3CCCC3)cc2)cs1)c1cccs1`, the GTP binding activity is reported as active: 71%.
With `COc1ccc(CCNC(=O)c2ccccc2Cl)cc1OC` the GTP binding activity was inconclusive: 97%.
`Cc1ccc(S(=O)(=O)N(C)CC(=O)OCC(=O)c2c(N)n(C)c(=O)n(C)c2=O)cc1` was tested, and the GTP binding activity was inactive: 97%.
In the case of `Cc1cc(C(=O)O)ccc1-c1ccc(/C=C2\NC(=O)N(Cc3ccccc3Cl)C2=O)o1`, the GTP binding activity is reported as inconclusive: 88%.
In the case of `CCOc1ccc(NC(=O)CSc2nc3cccnc3n2CCOC)cc1`, the GTP binding activity is reported as inconclusive: 106%.
With `c1cncc(CN=C2Nc3ccccc3CS2)c1` the GTP binding activity was inconclusive: 92%.
For `CCc1ccccc1NC(=O)c1onc(C)c1Cl`, the GTP binding activity was inconclusive: 102%.
In the case of `CC(C(=O)Nc1cccnc1)C1Sc2ccccc2NC1=O` (stereo not drawn), the GTP binding activity is reported as inactive: 95%.
`CCOC(=O)C1CCN(C(=O)c2cnn3c(C)cc(C)nc23)CC1` was tested, and the GTP binding activity was inactive: 96%.
In the case of `CC(C)(C)OC(=O)NCCCC[C@H](NC(=O)c1nc[nH]c1C(=O)N1CCN(C(=O)OC(C)(C)C)CC1)C(=O)OC(C)(C)C`, the GTP binding activity is reported as inconclusive: 95%.
For `COc1ccc(OC)c2c(N3CCN(C)CC3)cc(C(F)(F)F)nc12`, the GTP binding activity was inconclusive: 103%.
`O=C(CCCOc1ccccc1)Nc1ccc(S(=O)(=O)Nc2ccccn2)cc1` was tested, and the GTP binding activity was inactive: 93%.
In the case of `CCOc1ccccc1C(=O)Nc1cccc(-c2nnc(-c3ccccc3)o2)c1`, the GTP binding activity is reported as inconclusive: 84%.
In the case of `CC(C)CC(c1nnnn1C(C)C)N1CCN(c2cccc(Cl)c2)CC1` (stereo not drawn), the GTP binding activity is reported as inconclusive: 101%.
For `O=C(NCCN1CCN(Cc2ccccc2)CC1)C1c2ccccc2C(=O)N2CCc3ccccc3C12` (stereo not drawn), the GTP binding activity was inconclusive: 106%.
For `O=C(CCN1CCOCC1)Nc1ccccc1`, the GTP binding activity was inconclusive: 103%.
`Cc1cccc(NCC(O)Cn2cnc3c2c(=O)n(C)c(=O)n3C)c1` (stereo not drawn) was tested, and the GTP binding activity was inactive: 114%.
With `Cc1ccc(C(=O)NC(=S)Nc2ccc3[nH]c(=O)[nH]c3c2)c(C)c1` the GTP binding activity was inconclusive: 98%.
For `O=C(NC1CCCC1)c1cccc(Oc2ccccc2)c1`, the GTP binding activity was inactive: 99%.
With `CCC(=O)c1ccc(OCC(O)CN(CCc2ccccc2)Cc2ccccc2)cc1` (stereo not drawn) the GTP binding activity was inconclusive: 104%.
For `CCc1ccc(CNC(=O)c2cc3c(C)nc4ccccc4c3o2)cc1`, the GTP binding activity was inconclusive: 90%.
With `O=C(CN1CCN(c2ccccn2)CC1)Nc1ccc(OCc2ccccc2)cc1` the GTP binding activity was inconclusive: 104%.
With `Cc1ccc(NC(=O)c2ccccc2OCC(=O)Nc2cccc(Cl)c2C)nc1` the GTP binding activity was inactive: 94%.
`CCO[C@@H]1OC(C(=O)NCc2ccccc2)=C[C@H](c2coc3ccccc3c2=O)[C@H]1CCCO` was tested, and the GTP binding activity was inactive: 97%.
In the case of `COC(=O)C(C)Oc1ccc(Oc2nc(Cl)ccc2Cl)cc1` (stereo not drawn), the GTP binding activity is reported as inactive: 93%.
`O=C(CSc1ncccn1)NCc1cccs1` was tested, and the GTP binding activity was inactive: 93%.
In the case of `COCCN=C1Sc2nc3cc4c(cc3cc2CN1CC1CCCO1)OCO4` (stereo not drawn), the GTP binding activity is reported as inactive: 98%.
`O=C(CNCC1CCCO1)Nc1ccc(N2CCCCCC2)cc1` (stereo not drawn) was tested, and the GTP binding activity was inconclusive: 107%.
In the case of `c1ccc2[nH]c3cc4ncnc4cc3nc2c1`, the GTP binding activity is reported as active: 77%.
In the case of `CCNC(=O)C1CCCN1S(=O)(=O)c1ccc(OC)cc1` (stereo not drawn), the GTP binding activity is reported as inconclusive: 91%.
`CC(C)NC(=S)N=Nc1c(O)[nH]c2ccc([N+](=O)[O-])cc12` was tested, and the GTP binding activity was active: 72%.
For `Cc1ccc2c(c1)cc(CN(Cc1cccnc1)C(=O)c1ccccc1)c1nnnn12`, the GTP binding activity was inconclusive: 96%.
`CCSC1=NCCN1C(=O)c1ccc(S(=O)(=O)N(C)C)cc1` was tested, and the GTP binding activity was inactive: 99%.
`Cc1oc(-c2cccs2)nc1CN1CCN(Cc2ccc(F)c(F)c2)C(CCO)C1` (stereo not drawn) was tested, and the GTP binding activity was inactive: 99%.
In the case of `CCCn1c(SCCc2ccccc2)nc2c1c(=O)[nH]c(=O)n2C`, the GTP binding activity is reported as inconclusive: 102%.
`O=c1c2c(nc3cc(-c4ccc(Br)cc4)[nH]n13)CCCC2` was tested, and the GTP binding activity was inconclusive: 84%.
